# Results published in PubChem BioAssay (NCATS).
# This is one part of the list. Shown are side measurements of this screen, not its main read-out; they come without a call. The note in brackets gives the kind of curve behind each potency; many fits are weak.
# Assay: qHTS drug screen for cell cycle checkpoint inhibitors in PARPi-resistant BRCA-mutant ovarian cancer cell lines. (AID 1963452)
# Conditions: PEO1/OlaR viability, CellTiter-Glo luminescence, 96 h; measured here: PEO4 viability
# Method in brief: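 PEO1, PEO4 and PEO1/OlaR ovarian cancer cells, 600 per well, exposed 96 h at 37C to a dilution series. Viability read by CellTiter-Glo luminescence, normalized to DMSO and empty wells; activity summarized as Z-AUC.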
# Tags give direction and shape of the fitted curve.
row,Structure (SMILES),AC50
1,Cc1cncc2cccc(S(=O)(=O)N3CCCN(C(=O)CN)C[C@@H]3C)c12,"0.616 µM [falling, full curve]"
2,Nc1ncnc2c1C(=O)N(c1ccc(C3CCC(CC(=O)O)CC3)cc1)CCO2 (centres undefined),"12.3 µM [rising, partial curve, poor fit]"
3,CC(C)OC(=O)C1=CN(C(=O)c2ccc(F)c(F)c2)CC(C)(C)c2c1[nH]c1ccccc21,"27.5 µM [falling, single point]"
4,CCNC1(C(N)=O)CCN(c2ncnc3c2nc(-c2ccccc2Cl)n3-c2ccc(Cl)cc2)CC1,"17.4 µM [falling, single point]"
5,CC(=O)NCCCS(=O)(=O)O,"2.68 µM [rising, partial curve, poor fit]"
6,NS(=O)(=O)c1ccc(Cc2c(-c3cccc(-c4ccccc4)c3)nn(-c3nc(C(=O)O)cs3)c2CC2CC2)cc1,"17.4 µM [falling, single point]"
7,COc1cccc(Nc2c(C(N)=O)cnc3c(C)cc(S(=O)(=O)c4cccc(C(=O)N(C)C)c4)cc23)c1,"0.0087 µM [rising, full curve, poor fit]"
8,CCOC(=O)N[C@@H]1CC[C@@H]2[C@@H](C1)C[C@H]1C(=O)O[C@H](C)[C@H]1[C@H]2/C=C/c1ccc(-c2cccc(F)c2)cn1,"27.5 µM [falling, single point]"
9,O=C(C1CC1)N1CC[C@@H](Cc2n[nH]c(=O)n2-c2ccc(-c3ccc4occc4c3)cc2)C1,"17.4 µM [falling, partial curve, poor fit]"
10,CCCCOC(=O)NS(=O)(=O)c1sc(CC(C)C)cc1-c1ccc(Cn2ccnc2)cc1,"13.8 µM [falling, partial curve, poor fit]"
11,CCOc1ccc(Cc2cc([C@@H]3O[C@H](CO)[C@@H](O)[C@H](O)[C@H]3O)ccc2Cl)cc1,"0.389 µM [rising, full curve]"
12,CC(C)c1onc(-c2c(Cl)cccc2Cl)c1COc1ccc(/C=C/c2cccc(C(=O)O)c2)c(Cl)c1,"24.5 µM [falling, single point]"
13,Cc1c(F)ccc(C(=O)Nc2cc([N+](=O)[O-])ccc2N2CCN(C)CC2)c1Cl,"0.0039 µM [rising, full curve, poor fit]"
14,Cc1ccc(Nc2cc(N[C@@H]3CCCC[C@@H]3N)nnc2C(N)=O)nc1C,"17.4 µM [falling, single point]"
15,O=C(Nc1cc(Oc2cc(F)c(NC(=O)C3(C(=O)Nc4ccc(F)cc4)CC3)cc2F)ccn1)C1CC1,"21.9 µM [falling, single point]"
16,CC(/C=C/[C@@H]1C[C@]1(C)c1ccc2c(c1)C(C)(C)CCC2(C)C)=C\C(=O)O,"15.5 µM [falling, partial curve]"
17,CC(=O)Nc1ccc(C(=O)Nc2ccccc2N)cc1,"13.8 µM [falling, single point]"
18,N#C/C(=C(/N)Sc1ccc(N)cc1)c1ccccc1C(F)(F)F,"27.5 µM [falling, single point]"
19,CC(C)NC(=O)C1CCC(n2c(NC(=O)c3ccc(F)cc3)nc3ccc(CN4CCC(C(C)(C)O)CC4)cc32)CC1 (centres undefined),"6.01 µM [falling, partial curve]"
20,Cc1ccc(NC(=O)[C@H]2CCCN(C(=O)c3c(C)cccc3F)[C@H]2c2ccc(NC3CCCC3)cc2)cc1C(F)(F)F,"17.4 µM [falling, partial curve, poor fit]"
21,COCCCc1sc(-c2ccccc2)nc1C(=O)Nc1ccccc1-c1nc2cc(CN3CCCC3)cnc2s1,"4.77 µM [falling, partial curve, poor fit]"
22,Cn1cc(-c2ccc3c(c2)CCN3C(=O)Cc2cccc(C(F)(F)F)c2)c2c(N)ncnc21,"24.5 µM [falling, single point]"
23,CC(=O)OC[C@@H]1O[C@@H](n2ccc(=O)[nH]c2=O)[C@H](OC(C)=O)[C@H]1OC(C)=O,"11 µM [rising, partial curve, poor fit]"
24,CC(C)NC(=O)COc1cccc(-c2nc(Nc3ccc4[nH]ncc4c3)c3ccccc3n2)c1,"2.75 µM [falling, full curve]"
